Source: PubChem BioAssay AID624202 (National Center for Advancing Translational Sciences (NCATS), 2012)
The campaign covered roughly 380,000 compounds. About 4,000 (1.1%) were called active. This list was built around the results that the source calls inconclusive (neither active nor inactive); the mix of calls is not that of the screen. The call rests on the fitted dose curve; in most records, active means well fitted activation curve with a large enough effect; inconclusive means small, poorly fitted or top-dose-only effect; inactive means no such curve, though single readings can be large or run the other way. Where the call is inconclusive, the potency comes from a doubtful curve fit.

assay: qHTS Assay to Identify Small Molecule Activators of BRCA1 Expression; settings: MCF7-BRCA1-FFLuc reporter, luminescence, 48 h; activation: at 46.1 µM (top of the series), scaled: vehicle 0%, 10 µM genistein 100% unless noted; further: nearly all actives have a fitted effect of over 80% in size
How it was run: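 Quantitative HTS in MCF7 cells stably reporting BRCA1 expression via firefly luciferase. Compound treatment lasts 48 h at 37 °C in phenol-red free MEM. Activation is expressed relative to genistein at 10 microM and DMSO.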
Potency means the concentration at half of the fitted maximal effect; tags describe the fitted curve by direction and shape.

SMILES	activation	Potency
CC(=NNC(=S)N1CCC1)c1ccccn1	inconclusive: -93.5% [activator]	
O=C(CCS(=O)(=O)c1ccc(Br)cc1)Nc1cc(F)ccc1F	inactive: -35.9%	
C=CCn1c2ccccc2c(=O)c2cc(C#Cc3ccccn3)ccc21		active: 8.91 µM
CCOc1ccccc1N1CCN(Cc2cccc(OC)c2O)CC1	inactive: -27%	
O=C(/C=C/c1cccc2ccccc12)N1CCOCC1		active: 10 µM
O=C(COc1ccc(Cl)cc1Cl)NC(=O)N1CCCCC1		inconclusive: 11.2 µM [activator, partial curve, poor fit]
Cc1ccccc1C(=O)Nc1cc(C)c(O)c(-c2nc3ccccc3o2)c1	inactive: 4.2%	
O=C(Nc1nc2ccc(F)cc2s1)c1ccc(N2CCCC2=O)cc1		inconclusive: 28.2 µM [activator, partial curve, poor fit]
COc1ccc(/C=C2\SC(=O)N(CCNC(=O)C3CCN(S(=O)(=O)c4cccs4)CC3)C2=O)cc1		inconclusive: 10 µM [activator, partial curve, poor fit]
CC1CCN(C(=O)c2cc(-c3ccccc3O)on2)CC1		inconclusive: 2.24 µM [activator, full curve, poor fit]
COc1cc(C)ccc1OCCSc1nc2ccc(NC(=O)c3ccco3)cc2s1	inactive: -43.5%	
O=C(Nc1ccn(Cc2ccccc2)n1)c1ccc(F)cc1		inconclusive: 2 µM [activator, partial curve, poor fit]
Nc1ccccc1SC1CC(=O)N(c2ccc3c(c2)OCCO3)C1=O (stereo unspecified)		inconclusive: 3.55 µM [activator, partial curve, poor fit]
S=c1[nH]cc(Cc2ccccc2)s1	inactive: -0.268%	
CCC(C)N(C(=O)COc1ccc(Cl)c2cccnc12)C1CCS(=O)(=O)C1 (stereo unspecified)	inactive: -1.98%	
C=C(C)C(=O)Oc1ccc(N=Nc2ccc(C)cc2)ccc1=O	inactive: -34.6%	
COc1ccc(NC(=O)Nc2ccc3nccnc3c2)cc1		inconclusive: 1.26 µM [activator, full curve, poor fit]
O=C(CCc1ccccc1)NCC(=O)N/N=C/c1ccc(O)cc1O	inactive: -38.2%	
CCOC(=O)C1=CN(Cc2ccco2)S(=O)(=O)NC1c1ccc(Br)cc1F (stereo unspecified)	inactive: -2.34%	
Fc1ccccc1C1CCN(Cc2nc(CC3CC3)no2)C1 (stereo unspecified)		inconclusive: 7.08 µM [activator, partial curve, poor fit]
CCOc1ccc(NC(=O)c2ccc(NC(=O)COC(=O)Cc3ccc(OC)cc3)cc2)cc1		active: 4.47 µM
Cc1ccc(CNc2ccc3c(c2)ncn3C(C)C)cc1		active: 5.01 µM
CCN(CC)c1ccc(C=NNc2ccc([N+](=O)[O-])cn2)cc1		inconclusive: 2.24 µM [activator, full curve, poor fit]
COc1ccc(-c2nc(N3CCN(S(=O)(=O)c4ccccc4)CC3)c3ccccc3n2)cc1	inactive: -7.76%	
COc1ccc(C(=O)C2CCCN(S(=O)(=O)c3ccc(C(C)=O)cc3)C2)c(C)c1 (stereo unspecified)	inactive: -33.6%	
CCOC(=O)c1ccc(NCCOC)c([N+](=O)[O-])c1		active: 12.6 µM

SMILES	activation	Potency
O=C(Nc1ccc(CN2CCOCC2)cc1)c1ccc(Br)cc1		inconclusive: 3.55 µM [activator, partial curve, poor fit]
Cc1cc(OCC(=O)Nc2ccc(N3CCN(C(=O)c4ccco4)CC3)cc2)cc(C)c1Cl	inactive: -45.2%	
CCNC(=S)NNC(=O)c1cc(-c2cccc(OCC)c2)nc2ccccc12		inconclusive: 22.4 µM [activator, single point]
Cc1ccc(NC(=O)N2CCCCCC2)cc1C		inconclusive: 2.24 µM [activator, full curve, poor fit]
ClC1(Cl)CC1CSc1nnc(-c2ccncc2)o1 (stereo unspecified)		inconclusive: 31.6 µM [activator, single point]
Cc1csc2ncc(C(=O)Nc3ccc4c(c3)OCCO4)c(=O)n12		inconclusive: 2 µM [activator, partial curve, poor fit]
COc1ccc2cc(-c3nc4ccccc4n3C)c(=O)oc2c1		inconclusive: 2 µM [activator, partial curve, poor fit]
CS(=O)(=O)N1CCC(C(=O)N2CCN(c3ccccc3F)CC2)CC1	inactive: 12.9%	
O=S(=O)(c1ccc(C2CCCCC2)cc1)N1CCN(c2ccc(Cl)c(Cl)c2)CC1	inactive: 3.15%	
CCCCc1ccc(Nc2ncccc2C#N)cc1		inconclusive: 14.1 µM [activator, partial curve, poor fit]
COC(=O)c1ccccc1Nc1cc(C)nc2nc(C)nn12	inactive: 4.49%	
O=[N+]([O-])c1cccc(COc2ccc(CN3CCCC3)cc2)c1		inconclusive: 1.26 µM [activator, full curve, poor fit]
CCOC(=O)CSc1nc2ccccc2c(=O)n1NC(=O)c1ccccc1		inconclusive: 2 µM [activator, partial curve, poor fit]
COc1ccc(C(=O)Nc2ccc(NC(=O)c3ccccc3OC)nc2)cc1		inconclusive: 12.6 µM [activator, partial curve, poor fit]
N/C(=N\OC(=O)COc1ccc2ccccc2c1)c1ccccn1		inconclusive: 10 µM [activator, partial curve, poor fit]
COCCn1c(SCC(=O)Nc2cc(Cl)ccc2OC)nc2c([nH]c3ccccc32)c1=O	inactive: 14.3%	
O=C1CCC(C(=O)N2CCCCO2)CN1CCc1ccccc1 (stereo unspecified)		inconclusive: 20 µM [activator, partial curve, poor fit]
Clc1ccc2nc(CSc3nnc4ccccn34)cn2c1		inconclusive: 0.501 µM [activator, full curve, poor fit]
COc1cc(OC)c(/C=C/c2ccc3ccccc3[n+]2C)c(OC)c1	inactive: -70%	
COc1ccc(-c2csc(Nc3ncccc3C)n2)cc1OC		active: 2.82 µM
CCOC(=O)c1ccc(CSc2nnc(N)s2)cc1		inconclusive: 8.91 µM [activator, partial curve, poor fit]
O=C(COC(=O)C1CC(=O)N(C2CCCCC2)C1)c1ccc(F)cc1 (stereo unspecified)	inactive: 4.24%	
COc1cc(CNCc2ccc(C(=O)O)cc2)ccc1OCc1ccc(F)cc1	inactive: 24%	
COc1ccc2cc(CO)c(Cl)nc2c1	inactive: 25%	
CC1Sc2ccc(C(=O)OCc3ccccc3Cl)cc2NC1=O (stereo unspecified)		active: 6.31 µM
COc1ccc(O)c(C(=O)c2cc(SCC(=O)O)c3nc4sc5c(c4c(=O)n3c2)CCCC5)c1		inconclusive: 22.4 µM [activator, single point]

SMILES	activation	Potency
c1ccc(CNc2ccc3ccccc3n2)nc1		inconclusive: 1.26 µM [activator, partial curve, poor fit]
CC(C)c1cc(C(C)C)c(S(=O)(=O)N2c3ccccc3[C@@]3(Br)C[C@H]4C(=O)N[C@@H](Cc5ccccc5)C(=O)N4[C@@H]23)c(C(C)C)c1	inactive: -52.5%	
Cc1ccc(C(=O)CSc2nnc(C)s2)cc1		inconclusive: 17.8 µM [activator, partial curve, poor fit]
c1ccc(CCNc2ncnc3c2cnn3-c2ccccc2)cc1		active: 4.47 µM
COC(=O)c1ccc(/C=N/NC(=O)c2cccc(F)c2)cc1		active: 10 µM
CCC1CCC/C1=N\NC(=O)c1ccoc1C (stereo unspecified)		inconclusive: 25.1 µM [activator, single point]
Cc1ccc(OCCOc2cccc(/C=N/NC(N)=O)c2)cc1		inconclusive: 1.26 µM [activator, full curve, poor fit]
O=C(NNC(=O)c1cc2ccccc2oc1=O)c1ccccc1	inconclusive: 137% [activator]	
CCn1cc(C(=O)NCc2ccco2)c(=O)c2cc(S(=O)(=O)N3CC(C)CC(C)C3)ccc21 (stereo unspecified)	inactive: -86.6%	
CN(C)c1ccc(/C=N/NC(=O)COc2ccccc2)cc1	inactive: 91%	
COc1ccc(C(=O)COC(=O)c2cc(=O)[nH]c3ccccc23)c(OC)c1		active: 12.6 µM
O=C(Cn1cnc2ccccc2c1=O)Nc1ccc2c(c1)OCCO2		active: 3.16 µM
COc1ccc(-c2noc(CSc3ccccc3)n2)cc1OC		active: 11.2 µM
COc1ccc(-c2nc3cc(NC(=S)NC(=O)Cc4ccccc4)ccc3o2)cc1		inconclusive: 2.51 µM [activator, full curve, poor fit]
CC(C)Cn1cc(NC(=O)N2CCN(c3ccc(F)cc3)CC2)c2ccccc2c1=O	inactive: -10.2%	
Cc1cccc(NC(=S)NC(=O)c2oc3ccccc3c2C)n1		inconclusive: 0.891 µM [activator, full curve, poor fit]
CCCN1C(=O)c2cc(C(=O)Nc3cccc(C(C)=O)c3)ccc2C1Nc1cccc(C(C)=O)c1 (stereo unspecified)	inactive: -36.8%	
CN(CCOc1ccccc1)C(=O)C1CCC(=O)N(CCc2ccc(Cl)cc2)C1 (stereo unspecified)		inconclusive: 35.5 µM [activator, single point]
Cc1nc2ccc(C(=O)c3ccccc3)cc2[nH]1		inconclusive: 12.6 µM [activator, partial curve, poor fit]
Cc1c(C(=O)Nc2cc(F)cc(F)c2)cnn1-c1ccccc1		inconclusive: 1.78 µM [activator, full curve, poor fit]
O=C(NCCC1=CCCCC1)NC1CCCCC1		inconclusive: 1.78 µM [activator, full curve, poor fit]
CC(C)(C)c1ccc(C(=O)C[n+]2ccccc2Cl)cc1		active: 7.94 µM
O=C(Nc1ccc(N2CCCC2)c(Cl)c1)c1ccc(Br)o1		active: 3.98 µM
CC(=O)c1ccc(N/C=C/C(=O)c2ccc(Br)cc2)cc1		inconclusive: 2.51 µM [activator, partial curve, poor fit]
